Assay results: PubChem BioAssay AID504832 (National Center for Advancing Translational Sciences (NCATS), 2011)
Out of some 310,000 compounds screened, about 18,000 (5.8%) were called active. The inconclusive results got no clear call from the source; some entries with a clear call stand among them for comparison. Calls come from the whole dose curve; as a rule, active = well fitted inhibition curve with a large enough effect; inconclusive = small, poorly fitted or top-dose-only effect, or another doubt; inactive = no such curve, though single readings can be large or run the other way. Potencies of inconclusive entries are left out as doubtful fits.
Potency is the fitted concentration of half-maximal effect; tags give direction and shape of the fitted curve.

Experiment: Primary qHTS for delayed death inhibitors of the malarial parasite plastid, 48 hour incubation
Details: P. falciparum luciferase growth in erythrocytes; series mostly up to 28.7 µM
In short: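 Luminescence readout; reporter = integrated firefly luciferase in P. falciparum. RBC culture at 2% hematocrit, 0.1% parasitemia final, 37 C/5% CO2; decreased signal taken as growth inhibition.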
In the case of `COc1ccc(-c2sc3cc(OC)c(OC)cc3c2C#CCCO)cc1`, the Potency is reported as inconclusive [inhibitor, full curve, poor fit]. For `Cc1cc(NC(=O)c2ccc(S(=O)(=O)N3CCOCC3)cc2)nc2c1c(=O)oc1ccccc12`, the Potency was inconclusive [inhibitor, partial curve, poor fit]. In the case of `CC(=O)N1CCCN(C(=O)c2ccc3nc(Cc4cccc(Cl)c4)oc3c2)CC1`, the Potency is reported as inconclusive [inhibitor, partial curve, poor fit]. With `CCC(C)n1cnc2c(c1=O)c1nc3ccccc3nc1n2-c1ccc2c(c1)OCCO2` (stereo unspecified) the Potency was “inactive”. In the case of `O=C(C[n+]1ccc(C(=O)NCc2ccccc2)cc1)c1ccc(Cl)cc1`, the Potency is reported as inconclusive [inhibitor, single point]. In the case of `O=S(=O)(/C(=C/c1ccc(C(F)(F)F)cc1)c1nc2ccccc2[nH]1)c1ccccc1`, the Potency is reported as active: 4.15 µM. With `CCc1ccc2[nH]c(=O)c(CN(Cc3nnnn3C3CCCC3)C3CCCCC3)cc2c1` the Potency was active: 8.28 µM. With `Cc1ccccc1NC(=O)CCc1c(C)nn(-c2ccc(N3CCCCC3)nn2)c1C` the Potency was inconclusive [inhibitor, partial curve, poor fit]. For `O=C1CC(N2CCC(n3c(=O)[nH]c4ccccc43)CC2)C(=O)N1Cc1ccccc1` (stereo unspecified), the Potency was inconclusive [inhibitor, single point]. For `CN(c1ccccc1)c1nc(N)c([N+](=O)[O-])c(Nc2cccc(F)c2)n1`, the Potency was inconclusive [inhibitor, single point]. With `Cn1cnc2cc(NCc3ccc(Cl)cc3)ccc21` the Potency was “inactive”. With `O=C(CCN1CCCC1=O)NC1CCCc2c1cnn2-c1ccc(F)cc1F` (stereo unspecified) the Potency was “inactive”. In the case of `CSc1ncc(CN2CCC(C(=O)Nc3cccc(-c4cscn4)c3)CC2)cn1`, the Potency is reported as inconclusive [inhibitor, partial curve]. In the case of `Cc1ccccc1C(=O)N1CCN(c2ccc(NC(=O)c3ccc4c(c3)OCO4)cc2)CC1`, the Potency is reported as inconclusive [inhibitor, partial curve]. With `CCn1c(SCC(=O)Nc2ccccc2N2CCOCC2)nnc1-c1ccccc1O` the Potency was inconclusive [inhibitor, partial curve, poor fit]. With `Cc1ccc(NC(=S)NCc2ccccc2)cc1[N+](=O)[O-]` the Potency was “inactive”. In the case of `Cc1ccc(OC(C)C(=O)Nc2ccccc2C(=O)NCc2cccnc2)cc1C` (stereo unspecified), the Potency is reported as inconclusive [inhibitor, partial curve, poor fit]. With `CCS(=O)(=O)c1nc2ccccc2n1Cc1ccccc1Cl` the Potency was inconclusive [inhibitor, partial curve, poor fit]. With `O=c1cc(N2CCN(c3ccc(F)cc3)CC2)[nH]c(=O)n1C1CCCCC1` the Potency was “inactive”. In the case of `CCOC(=O)C1CCN(C2CCN(C(=O)c3oc4c(F)cccc4c3C)CC2)CC1`, the Potency is reported as active: 8.28 µM. For `O=C(Nc1cc(F)ccc1F)N1CCN(c2ccnc3cc(Cl)ccc23)CC1`, the Potency was inconclusive [inhibitor, partial curve]. With `O=C(N/N=C/c1ccccn1)c1ccccc1` the Potency was inconclusive [inhibitor, single point]. For `CCC(C)[C@H](NC(=O)OC(C)(C)C)c1nnc(SCc2c(C)[nH]c(=O)[nH]c2=O)o1` (stereo partly specified), the Potency was inconclusive [inhibitor, full curve, poor fit]. In the case of `O=C(CSc1nnc(NC(=O)c2ccccc2[N+](=O)[O-])s1)NCC1CCCO1` (stereo unspecified), the Potency is reported as “inactive”. In the case of `CCc1ccc(-n2c(=O)c3ccc(C(=O)NCCc4ccccc4)cc3n(CC(N)=O)c2=O)cc1`, the Potency is reported as inconclusive [inhibitor, partial curve, poor fit]. With `Cc1sc(NC(=O)c2ccco2)c(C(c2cccnc2)N2CCN(C)CC2)c1C` (stereo unspecified) the Potency was inconclusive [inhibitor, single point]. With `C=CCNc1nc(-c2cc3ccccc3o2)cs1` the Potency was “inactive”. With `Cn1c(=O)c(N)c2c3c(c(Br)ccc31)C(=O)c1ccccc1-2` the Potency was inconclusive [inhibitor, partial curve, poor fit]. For `O=C(CCCN1C(=O)/C(=C/c2ccc(F)cc2)SC1=S)NCCCn1ccnc1`, the Potency was inconclusive [inhibitor, partial curve, poor fit]. With `CC(C)N(C(=O)Cn1c(SCC(=O)Nc2nccs2)nc2ccccc21)C(C)C` the Potency was inconclusive [inhibitor, partial curve, poor fit]. For `CCC1(c2ccc(OC)cc2)NC(=O)N(CC(=O)c2ccc3c(c2)OCCO3)C1=O` (stereo unspecified), the Potency was inconclusive [inhibitor, single point]. In the case of `COc1cc(SC)ccc1C(=O)Nc1ncc(Cl)cc1Cl`, the Potency is reported as “inactive”. In the case of `Cc1cc(C)n(S(=O)(=O)c2cc(C)c(C)cc2C)n1`, the Potency is reported as inconclusive [inhibitor, single point]. With `C=CCNC(=S)NN=C1CCC(c2ccccc2)CC1` (stereo unspecified) the Potency was inconclusive [inhibitor, partial curve, poor fit]. For `Cc1c(Cl)cccc1NC(=O)CCC(=O)NNC(=O)c1ccco1`, the Potency was “inactive”. For `COc1ccc([C@@H]2CC=C(C(=O)O)[C@H](c3ccc(Cl)cc3)N2S(=O)(=O)c2ccc(C)cc2)cc1OC`, the Potency was inconclusive [inhibitor, single point]. For `Cc1nc(SC2CC(=O)N(c3ccccc3)C2=O)nc2c1CCCC2` (stereo unspecified), the Potency was “inactive”. In the case of `CCOc1ccc(CC2S/C(=N/c3ccccn3)NC2=O)cc1` (stereo unspecified), the Potency is reported as active: 14.7 µM. In the case of `CCC(C(=O)NCC1CCCO1)N(C(=O)c1snc(C(N)=O)c1N)c1ccc(Cl)cc1` (stereo unspecified), the Potency is reported as inconclusive [inhibitor, full curve, poor fit]. In the case of `CC(C)CCN(CC(=O)NC1CCCC1)C(=O)C(=O)Nc1ccc2c(c1)OCCO2`, the Potency is reported as inconclusive [inhibitor, partial curve]. For `COc1ccc(C(CNC(=O)C2CC(=O)N(Cc3ccccc3)C2)N2CCOCC2)cc1` (stereo unspecified), the Potency was inconclusive [inhibitor, single point].
